Test results published in PubChem BioAssay (EPA / NIEHS).
For some assays here: Shown are results outside the selection of hits, which stands elsewhere. Records with an inconclusive call do not appear. This is a selection; strong and weak results do not stand in their true shares. A structure can be active in one record and inactive in another. Calls of active or inactive are those of the source. The calls were made as follows, unless noted: active = hit-call score of the fitted dose curve at least 0.9, where 1 is the maximum; inactive = score below 0.9.

Experiments:
[1] = read-out: Vascular cell adhesion molecule 1 (VCAM1), VCAM1 (gene 7412); assay: BSK_4H_VCAM1: BioMAP Diversity Plus: 4H Assay for Vascular cell adhesion molecule 1 (VCAM1) Biomarker Activity (AID 2283033); settings: actives raise or lower the signal; primary human endothelial cells (HUVEC)
Outline: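 VCAM-1 ELISA read 24 h after chemical dosing of HUVEC in the BioMAP 4H system, with gain or loss of signal fitted relative to DMSO. Parallel SRB staining (560 nm) checked overt cytotoxicity.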

[2] = TOX21_p53_BLA_p5_viability: Viability Assessment in the Tox21 HCT-116 p53 Agonism Beta-lactamase Assay, Phase 5 (AID 2283600; active = hit-call score of the fitted dose curve at least 0.9, where 1 is the maximum)
Outline: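 Viability is taken from cellular ATP content, measured by luciferase luminescence in the same wells after the beta-lactamase ratio read. Cells are seeded at 4000 per well and exposed to DMSO-dissolved compounds, diluted 217-fold, for 16 h.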

[3] = CCTE_Harrill_HTTr_Apoptosis_MCF7: CCTE's 6-hour Apoptosis Assessment for the High-Throughput Transcriptomics (HTTr) Platform, in MCF-7 cells cultured in DMEM + 10% fetal bovine serum, Harrill Lab (AID 2284011)
Outline: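 Cells are dosed with test chemicals at eight concentrations and imaged 6 hours later for caspase-3/7 activity using a green fluorogenic detection reagent. Activity is fitted in both directions against DMSO controls.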

[4] = read-out: Macrophage colony-stimulating factor (MCSF), CSF1 (gene 1435); assay: BSK_CASM3C_MCSF: BioMAP Diversity Plus: CASM3C Assay for Macrophage colony-stimulating factor (MCSF) Biomarker Activity (AID 2283044); settings: actives raise or lower the signal; primary human coronary artery smooth muscle cells;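 also: M-CSF protein amount quantified by ELISA after 24 h exposure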
[5] = read-out: Human Leukocyte Antigen - DR isotype (HLADR), HLA-DRA (gene 3122); assay: BSK_CASM3C_HLADR: BioMAP Diversity Plus: CASM3C Assay for Human Leukocyte Antigen - DR isotype (HLADR) Biomarker Activity (AID 2283043); settings: actives raise or lower the signal; primary human coronary artery smooth muscle cells;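 also: cell-surface HLA-DR protein level quantified by ELISA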
[6] = target: Bile acid receptor (Homo sapiens) (UniProt Q96RI1); assay: OT_FXR_FXRSRC1_0480: Odyssey Thera (OT) 8-hour HEK293T Protein-Complementation Assay for Farnesoid X receptor/SRC-1 Co-activator (AID 2283383; active = hit-call score of the fitted dose curve at least 0.9, where 1 is the maximum)
Sequence of UniProt Q96RI1 (Q96RI1 whole entry, looked up): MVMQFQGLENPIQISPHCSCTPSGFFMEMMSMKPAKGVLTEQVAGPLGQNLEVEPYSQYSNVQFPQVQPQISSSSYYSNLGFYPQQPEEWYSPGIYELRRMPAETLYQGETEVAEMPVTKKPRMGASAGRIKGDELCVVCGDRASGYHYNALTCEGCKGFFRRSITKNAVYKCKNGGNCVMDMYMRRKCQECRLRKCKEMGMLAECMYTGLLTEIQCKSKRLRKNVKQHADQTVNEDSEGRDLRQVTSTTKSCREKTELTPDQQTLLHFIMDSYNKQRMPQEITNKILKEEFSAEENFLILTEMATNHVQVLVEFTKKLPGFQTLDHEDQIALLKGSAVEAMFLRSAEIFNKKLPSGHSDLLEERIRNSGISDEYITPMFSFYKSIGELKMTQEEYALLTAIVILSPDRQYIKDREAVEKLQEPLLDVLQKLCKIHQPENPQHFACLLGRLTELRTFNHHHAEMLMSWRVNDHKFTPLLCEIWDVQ
Outline: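 Binding of FXR to coactivator SRC-1 was read as fluorescence from a reconstituted split reporter in HEK293T cells, 8 h after chemical addition. Only increases in signal versus DMSO were fit.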

[7] = Tanguay_ZF_120hpf_OTIC_legacy: (Legacy) Oregon State University Tanguay Lab 120 Hour Post-fertilization zebrafish Assay for Otic Vesicle Malformation (AID 2283639; active = hit-call score of the fitted dose curve at least 0.9, where 1 is the maximum)
[8] = read-out: Collagen III, COL3A1 (gene 1281); assay: BSK_hDFCGF_CollagenIII: BioMAP Diversity Plus: hDFCGF Assay for Collagen III Biomarker Activity (AID 2283056); settings: actives raise or lower the signal; primary human foreskin fibroblasts
Outline: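 Cells: human foreskin fibroblasts, primary. Dosing followed by 24 h incubation, then ELISA for collagen III. Both increases and decreases scored relative to DMSO.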

[9] = BSK_hDFCGF_SRB: Viability Assessment in the BioMAP Diversity Plus: hDFCGF Assay (AID 2283061); settings: primary human foreskin fibroblasts;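 also: cells exposed to compound for 24 h before the read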
Outline: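 Cells were dosed with test chemical, cultured 24 h, fixed with 10% TCA, then stained with 0.1% SRB and read at 560 nm. The fibroblasts were human foreskin primary cells, and DMSO served as baseline.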

[10] = read-out: Bcl-2 (BAD) gene, BAD (gene 572); assay: LTEA_HepaRG_BAD: Life Technologies and Expression Analysis (LTEA) Assay for Bcl-2 (BAD) gene using HepaRG (AID 2283469); settings: actives raise or lower the signal; mRNA level, 48 h
Outline: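 HepaRG, 48 h exposure, 8-pt half-log curve from 100 uM in 0.5% DMSO, duplicates. Readout: TaqMan qRT-PCR for BAD mRNA, housekeeping-normalised (ACTB/GAPDH/POLR2A); gain or loss fitted against DMSO baseline.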

[11] = Tanguay_ZF_120hpf_SNOU_legacy: (Legacy) Oregon State University Tanguay Lab 120 Hour Post-fertilization zebrafish Assay for Snout Malformation (AID 2283637; active = hit-call score of the fitted dose curve at least 0.9, where 1 is the maximum)
Outline: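 Binary brightfield scoring of snout malformation at 120 hpf. Dechorionated 5D wild-type embryos, one per well, static exposure from 6 hpf at 28C, sealed and dark; final DMSO 0.64% (vol/vol), DMSO as baseline; 5uM trimethyltin chloride positive control.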

[12] = Tanguay_ZF_120hpf_NC_legacy: (Legacy) Oregon State University Tanguay Lab 120 Hour Post-fertilization zebrafish Assay for Notochord and Tail Malformation (AID 2283656; active = hit-call score of the fitted dose curve at least 0.9, where 1 is the maximum)
Outline: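 Binary scoring of notochord distortion by brightfield microscopy; embryos dying were not scored. Wild-type Tropical 5D embryos, chorion removed, exposed singly and statically from 6 to 120 hpf, 28C, sealed, 0.64% DMSO.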

[13] = ACEA_ER_AUC_viability: ACEA Biosciences xCELLigence Real-Time Cell Analysis on Estrogen Receptor Agonism for Viability (AID 2283782; active = hit-call score of the fitted dose curve at least 0.9, where 1 is the maximum;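 also: hit means loss of impedance signal meaning reduced cell growth or viability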)
Outline: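 Read-out: real-time electrical impedance (RT-CES) area under curve, loss of signal taken as reduced viability, normalized to DMSO baseline. T-47D cells, charcoal-stripped serum medium, compounds up to 100 uM final, continuous exposure, 80 h.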

[14] = read-out: Interferon-gamma inducible Protein 10 (IP10), CXCL10 (gene 3627); assay: BSK_hDFCGF_IP10: BioMAP Diversity Plus: hDFCGF Assay for Interferon-gamma inducible Protein 10 (IP10) Biomarker Activity (AID 2283053); settings: actives raise or lower the signal; primary human foreskin fibroblasts
Outline: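 ELISA quantification of IP-10 after a 24 h chemical exposure of human dermal foreskin fibroblast primary cultures. Both increases and decreases versus DMSO fitted.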

[15] = read-out: Insulin Like Growth Factor 1 (IGF1), IGF1 (gene 3479); assay: LTEA_HepaRG_IGF1: Life Technologies and Expression Analysis (LTEA) Assay for Insulin Like Growth Factor 1 (IGF1) using HepaRG (AID 2283506); settings: actives raise or lower the signal; mRNA level, 48 h
Outline: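 Expression measured by TaqMan qRT-PCR on a Fluidigm array, with three housekeeping genes for normalisation, after 48 h treatment of HepaRG cells. Top concentration 100 uM with half-log steps, 0.5% DMSO vehicle, bidirectional fit.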

[16] = read-out: Signal transducer and activator of transcription 3 (Homo sapiens) (UniProt P40763); assay: LTEA_HepaRG_STAT3: Life Technologies and Expression Analysis (LTEA) Assay for Signal transducer and activator of transcription (STAT3) using HepaRG (AID 2283529); settings: actives raise or lower the signal; mRNA level, 48 h
Sequence of UniProt P40763 (P40763 whole entry, looked up): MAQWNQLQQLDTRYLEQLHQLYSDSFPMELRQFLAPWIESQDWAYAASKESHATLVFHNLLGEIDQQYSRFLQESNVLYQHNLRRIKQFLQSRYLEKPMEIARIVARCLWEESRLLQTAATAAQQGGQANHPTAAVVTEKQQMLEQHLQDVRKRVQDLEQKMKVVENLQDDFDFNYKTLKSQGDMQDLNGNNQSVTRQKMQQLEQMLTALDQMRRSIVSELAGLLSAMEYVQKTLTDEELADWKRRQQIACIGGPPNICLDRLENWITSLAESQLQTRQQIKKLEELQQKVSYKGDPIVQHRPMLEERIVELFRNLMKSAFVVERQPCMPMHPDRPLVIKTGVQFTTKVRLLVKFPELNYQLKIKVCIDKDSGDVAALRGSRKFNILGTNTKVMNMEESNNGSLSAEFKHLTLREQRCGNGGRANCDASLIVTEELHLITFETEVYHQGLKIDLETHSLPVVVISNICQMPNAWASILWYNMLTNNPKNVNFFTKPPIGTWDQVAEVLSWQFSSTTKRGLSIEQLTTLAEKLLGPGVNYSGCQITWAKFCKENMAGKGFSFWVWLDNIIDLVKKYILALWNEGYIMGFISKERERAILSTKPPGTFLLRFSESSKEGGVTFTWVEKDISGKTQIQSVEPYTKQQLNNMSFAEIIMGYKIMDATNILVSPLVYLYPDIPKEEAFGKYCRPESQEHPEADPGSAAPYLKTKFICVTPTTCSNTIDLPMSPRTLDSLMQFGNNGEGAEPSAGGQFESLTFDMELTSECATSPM
Outline: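 HepaRG, 48 h exposure, 8-pt half-log series (top 100 uM), 0.5% DMSO vehicle, duplicates. Readout: STAT3 transcript by Fluidigm qRT-PCR, housekeeping-normalized; bidirectional fit vs DMSO baseline.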

**Q.** Which results are given for CCCCCCCCCC[N+](C)(C)CCCCCCCCCC?
**A.** AC50 [1]: active: 4.87 µM; AC50 [2]: active: 46.1 µM; outcome [3]: inactive

**Q.** Which outcome [4] does the source give for Cc1ccc2c(c1N)C(=O)c1ccccc1C2=O here?
**A.** inactive

**Q.** Which outcome [5] does the source give for CCCN(CCC)N=O here?
**A.** inactive

**Q.** Which AC50 [1] does the source give for CCC(C)(c1ccc(O)cc1)c1ccc(O)cc1 here?
**A.** active: 14.6 µM

**Q.** What about the AC50 [6] of the same compound?
**A.** active: 12.8 µM

**Q.** What about the AC50 [7] of the same compound?
**A.** active: 42.7 µM

**Q.** With C[C@@H]1C[C@@H]([C@H](O)CC2CC(=O)NC(=O)C2)C(=O)[C@@H](C)C1 as the compound, how does the AC50 [8] read?
**A.** active: 1.26 µM

**Q.** And the AC50 [9]?
**A.** active: 6.9 µM

**Q.** What about the outcome [10] of the same compound?
**A.** inactive

**Q.** And the outcome [11]?
**A.** inactive

**Q.** And the outcome [12]?
**A.** inactive

**Q.** What about the AC50 [13] of the same compound?
**A.** active: 1.36 µM

**Q.** With CCOP(=S)(OCC)SCCSCC as the compound, how does the AC50 [14] read?
**A.** active: 20 µM

**Q.** What about the outcome [15] of the same compound?
**A.** inactive

**Q.** And the outcome [16]?
**A.** inactive
